Here are results for 93 compounds from PubChem BioAssay AID1159614 (National Center for Advancing Translational Sciences (NCATS), 2016).

Among all 45,000 compounds or so, about 65 (0.1%) were called active. The call rests on the fitted dose curve; in most records, active means well fitted activation curve with a large enough effect; inconclusive means small, poorly fitted or top-dose-only effect; inactive means no such curve, though single readings can be large or run the other way. This is one part of the list.

For this test, the target named is Galactocerebrosidase (Homo sapiens) (UniProt P54803). The experiment in a line: A Novel Cell-Based Assay to Identify Small Molecules for B -Galactocerebrosidase. Further: 0% is about no effect; nearly all actives have a fitted effect of over 65% in size. Conditions: 145M-Twi-hGALC-G270D cells, HMU-beta-Gal fluorescence, 48 h; series mostly up to 57.5 µM; activation: at the top concentration. The method, boiled down: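 qHTS, 1536-well; 145M-Twi-hGALC-G270D cells (WT line also made) in DMEM/F12 + 10% FBS; compound incubation on live cells; HMU-β-gal 0.1 mM final, pH 5.2, NaTC; carbonate stop; fluorescence increase = enhanced residual activity.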
UniProt P54803, sequence (P54803 whole entry, looked up): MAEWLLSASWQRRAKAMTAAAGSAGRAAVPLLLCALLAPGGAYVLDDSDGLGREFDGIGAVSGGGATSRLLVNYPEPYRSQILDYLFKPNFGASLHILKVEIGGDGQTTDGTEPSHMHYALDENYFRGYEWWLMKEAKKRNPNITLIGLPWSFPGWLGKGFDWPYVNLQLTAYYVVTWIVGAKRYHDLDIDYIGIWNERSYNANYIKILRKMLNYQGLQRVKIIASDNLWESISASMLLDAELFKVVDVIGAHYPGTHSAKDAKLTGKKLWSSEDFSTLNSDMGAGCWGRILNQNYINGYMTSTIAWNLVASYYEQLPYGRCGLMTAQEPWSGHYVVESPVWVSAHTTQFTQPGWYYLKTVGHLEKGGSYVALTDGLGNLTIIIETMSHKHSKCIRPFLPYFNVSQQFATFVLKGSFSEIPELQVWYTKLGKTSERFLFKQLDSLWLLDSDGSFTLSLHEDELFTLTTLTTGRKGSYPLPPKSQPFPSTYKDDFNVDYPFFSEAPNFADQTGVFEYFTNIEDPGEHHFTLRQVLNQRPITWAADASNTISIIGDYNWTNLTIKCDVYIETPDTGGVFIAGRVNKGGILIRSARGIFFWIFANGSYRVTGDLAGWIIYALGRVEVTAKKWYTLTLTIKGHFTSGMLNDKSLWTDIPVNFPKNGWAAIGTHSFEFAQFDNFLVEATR
Regarding `CCOc1ccccc1NC(=O)CSc1nc2cc(OC)c(OC)cc2c2nc(-c3ccccc3)nn12`, the “activation” value was inactive: -23.2%.

Turning to `COc1ccccc1OCCSc1nc2ccccc2n1CC(=O)N1CCOCC1`, the “activation” value was inactive: 7.68%. Turning to `C#CCSc1nc2sc3c(c2c(=O)n1Cc1ccccc1)CCCC3`, the “activation” value was inactive: 4%. Regarding `COc1ccc(NC(=O)c2sc3nc(-c4ccc(OC)cc4)cc(C(F)(F)F)c3c2N)cc1`, the “activation” value was inactive: -9.18%. For `Cc1ccc(C)c(CN2C(=O)c3ccccc3S(=O)(=O)c3ccc(C(=O)N4CCN(c5ccccc5)CC4)cc32)c1`, the “activation” value was inactive: -11.2%. For `CC1CCCCN1S(=O)(=O)c1ccc(C(=O)Nc2sc3c(c2C(N)=O)CC(C)(C)NC3(C)C)cc1` (stereo not drawn) the value was inactive: -27.5%. For `Cc1ccccc1Nc1c(-c2ccco2)nc2c(C)cccn12` the value was inactive: -10.3%; for `Cc1n[nH]c(C)c1S(=O)(=O)N(CC(=O)Nc1ccc(C(F)(F)F)cc1)c1ccc(C(C)C)cc1`, inactive: -15.9%.

On to `Cc1ccc(CS(=O)(=O)c2ncc(Cl)c(C(=O)Nc3nc4ccc(C)cc4s3)n2)cc1`, for which the “activation” value is inactive: -7.32%.

Consider `Cc1ccc(-c2onc(C)c2C)cc1S(=O)(=O)N1c2ccccc2CC1C` (stereo not drawn), for which the “activation” value is inactive: -15.7%. Turning to `COc1ccc(CCNC(=O)c2c(O)nc3c(C)cccn3c2=O)cc1`, the “activation” value is inactive: -14.2%.

Take `Cc1cccc(NC(=O)Cn2c(=O)n(CCCS(=O)(=O)C3CCCCC3)c(=O)c3ccccc32)c1`: the “activation” value was inactive: 1.06%. Then `CCCCN(CCCC)CCNC(=O)Cn1nc(CC)n2c(cc3sc(C)cc32)c1=O`, with inactive: -5.95%. Then `O=S1(=O)c2ccccc2N(Cc2cccc(C(F)(F)F)c2)c2ccccc21`, with inactive: -7.49%. Consider `CCOC(=O)c1ccc(-n2c(C)nc3c(cnn3-c3ccc(Cl)cc3)c2=O)cc1`, for which the “activation” value is inactive: -12.3%. Then `CCOCCCNC(=O)c1[nH]c2cc(C)ccc2c1Sc1ccc(Cl)cc1`, with inactive: -11.8%. For `COc1cccc(-c2nc(SCC(=O)Nc3ccc4c(c3)OCCO4)c(-c3ccccc3)[nH]2)c1` the value was inactive: -13.8%; for `O=C(NCCn1cc(SCc2ccc(Cl)cc2)c2ccccc21)c1cccs1`, inactive: -8.05%. For `CN(C)CCNC(=O)Cn1c(=O)c2cccn2c2ccc(F)cc21` the value was inactive: 9.35%; for `COc1cc(OC)c(N(C)C(=O)CCNC(=O)Cn2cnc3ccccc3c2=O)cc1Cl`, inactive: -3.19%. Turning to `CCOCCc1nn2c(=O)cc(COC(=O)c3ccccc3NC(=O)C3CCCCC3)nc2s1`, the “activation” value is inactive: -6.4%. For `COc1ccccc1-c1nc2c(c(SCC(=O)Nc3ccc(C)c(C)c3)n1)Cc1c(CO)cnc(C)c1O2` the value was inactive: -5.09%; for `Cc1ccccc1NC(=O)Cn1c(=O)oc2cc(Br)ccc21`, inactive: -3.03%. For `Cc1ccc(NC(=O)c2cccc3c2C(=O)N(C2CCCCC2)C3)c(C)c1` the value was inactive: -2.35%; for `COc1ccc(C2=C(C)C(=NCCCN3CCN(c4cc(C)ccc4C)CC3)NS2(=O)=O)cc1`, inactive: -11.7%; for `COc1ccc(N(CC(=O)Nc2cccc(Cl)c2C)S(=O)(=O)c2c(C)nn(C)c2C)cc1`, inactive: -11.1%.

Consider `COc1cccc(Cn2c(CNC(=O)Cc3cccc(C)c3)nc3cccnc32)c1`, for which the “activation” value was inactive: -6.74%. For `Cc1ccc(C)c(NC(=O)Cn2cc(C(=O)c3ccco3)c3ccccc32)c1` the value was inactive: -12.3%. Then `CCCCN(CC)CCCNC(=O)c1nn(C)c2c1CS(=O)(=O)c1ccccc1-2`, with inactive: -7.67%.

As to `CCc1c(C)sc(NC(=O)c2cc(-c3cccc(Cl)c3)on2)c1C#N`, the “activation” value was inactive: -20.7%. Then `CCOC(=O)C1CCCN(c2cc(C)nc3c(-c4ccccc4OC)c(C)nn23)C1` (stereo not drawn), with inactive: -9.69%. Then `CC1=C(C(=O)OC(C)C)C(c2cccc([N+](=O)[O-])c2)C(C(=O)OC2CN(C(c3ccccc3)c3ccccc3)C2)=C(N)N1` (stereo not drawn), with inactive: -15.9%. For `Cc1c(C)n(C)c2ccc(C(=O)NCCCN3CCCCC3C)cc12` (stereo not drawn) the value was inactive: 0.872%.

As for `O=C(c1cc2c(s1)-c1ccccc1OC2)N1CCN(c2ccccc2F)CC1`, the “activation” value is inactive: -13.5%. Then `CCOC(=O)c1ccc(N2C(=O)c3n[nH]c(-c4ccco4)c3C2c2ccc(O)cc2)cc1` (stereo not drawn), with inactive: 1.76%; and `COc1ccc(C)cc1NC(=O)c1c(C)oc2ncn(CC(C)C)c(=O)c12`, with inactive: -4.25%. For the compound `CCCn1cc(S(=O)(=O)c2ccccc2)c(=O)c2cc(F)c(N3CCCC(C)C3)cc21` (stereo not drawn), the “activation” value was inactive: -5.16%. As for `CCCCCOc1c(Cl)cc(C(=O)N(Cc2ccc(C)o2)C2CCS(=O)(=O)C2)cc1Cl` (stereo not drawn), the “activation” value is inactive: -8.37%. Then `CCCN(CCC)CCCNC(=O)C1CCN(S(=O)(=O)CC)CC1`, with inactive: -0.935%; and `COc1ccc(C)c2sc(N(Cc3cccnc3)C(=O)C3CCCCC3)nc12`, with inactive: -12.3%. For `Cc1ccc(S(=O)(=O)c2cc3cc(C(=O)O)ccc3oc2=O)cc1` the value was inactive: -18%; for `CCN[C@@H]1C[C@H](N)[C@@H](OC2OC(CN)=CCC2N)[C@H](O)[C@H]1O[C@H]1OC[C@](C)(O)[C@H](NC)[C@H]1O` (stereo partly drawn), inactive: -14.3% [at 0.46 µM].

For `CCn1cc(CCC(=O)NCc2ccccc2OC)c2ccccc21`, the “activation” value was inactive: 4.93%. Then `Cc1ccc(S(=O)(=O)CC(=O)Nc2sc3c(c2C#N)CCCC3)cc1`, with inactive: -5.19%; and `Cc1ccc(CSCC(=O)N2CCN(c3ccccc3F)CC2)cc1`, with inactive: -15.6%; and `Cc1cc(C2CCCCC2)n(O)c(=O)c1`, with inactive: -32.9%.

Consider `CCOC(=O)Cn1c(=O)n(C2CCCCC2)c2nc(-c3cccc(F)c3)nc(C(N)=O)c21`, for which the “activation” value is inactive: -13.4%.

Regarding `CC1=C(C(=O)Nc2ccccc2)C(c2cccnc2)n2nc(SCc3ccccc3Cl)nc2N1` (stereo not drawn), the “activation” value is inactive: -2.29%.

On to `CCOc1cccc(C(c2c(C)n(C)n(-c3ccccc3)c2=O)c2c(C)n(C)n(-c3ccccc3)c2=O)c1OC`, for which the “activation” value was inactive: -4.79%. For `CCOC(=O)c1c(NC(=O)COc2cc(C)ccc2C(C)C)sc(C)c1C` the value was inactive: -7.49%; for `CCOc1ccccc1NC(=O)Cn1c(=O)n(-c2ccc(F)cc2)c(=O)c2sc3ccccc3c21`, inactive: -10.2%.

For `COc1ccc(CCNC(=O)CCCn2c(=O)c3ccccc3n(CC(=O)Nc3cc(Cl)ccc3C)c2=O)cc1OC`, the “activation” value was inactive: -6.88%. Then `CCOc1ccc(NC(=O)c2nn(C)c3c2CS(=O)(=O)c2ccccc2-3)cc1`, with inactive: -4.96%; and `COc1ccc2cc(C=O)ccc2c1`, with inactive: -12.2%. Then `CCOc1ccc(-c2nnc(SCC(=O)NCCc3ccc(OC)c(OC)c3)nc2-c2ccc(OCC)cc2)cc1`, with inactive: -13.8%; and `COc1cc(Cl)c(C)cc1NC(=O)c1cn(C2CCCC2)c(=O)c2c1c1ccccc1n2C`, with inactive: -17.5%. Then `COc1ccc(C(=O)Nc2ccc3nc(N4CCC(C)CC4)cc(C)c3c2)cc1`, with inactive: 24.9%; and `O=C(c1cccc(Cl)c1)N1CCN(CCc2ccncc2)CC1`, with inactive: -8.85%; and `Cc1ccccc1-c1noc(CCC(=O)Nc2cccc(C)c2C)n1`, with inactive: -20.6%.

Regarding `O=C(Nc1cccc(OCc2cc(=O)n3c4c(sc3n2)CCCC4)c1)c1ccc(F)cc1`, the “activation” value was inactive: -6.35%. As for `Cc1ccc2nc(-c3cc(NC(=O)/C=C/c4ccccc4)ccc3Cl)oc2c1`, the “activation” value is inactive: -14.4%. For `COc1ccc(-c2nc(CSc3nncn4c3cc3occc34)c(C)o2)cc1` the value was inactive: -6.37%; for `COc1cc(C(=O)NS(=O)(=O)c2ccccc2C)ccc1Cc1cn(C)c2ccc(NC(=O)OC3CCCC3)cc12`, inactive: -20%. For `CCOCCCNC(=O)C(Cc1ccccc1)NS(=O)(=O)c1ccc2c(c1)c(=O)n(C)c(=O)n2C` (stereo not drawn), the “activation” value was inactive: -9.08%.

For `COc1ccc(Cl)cc1-n1c(/C=C/c2cccc3ccccc23)nc2ccccc2c1=O`, the “activation” value was inactive: -20.8%. For `CCOc1ccc(NC(=O)c2cc(S(=O)(=O)N3CCCCC3)c[nH]2)cc1` the value was inactive: 20.7%; for `CN1C(C(=O)Nc2ccccn2)=C(O)c2sccc2S1(=O)=O`, inactive: -16.7%. Then `Cc1ccc2oc(=O)c3cnn(CC(=O)N4CCN(c5cc(Cl)ccc5C)CC4)c3c2c1`, with inactive: -13.6%. Consider `COc1cccc(CNc2nc3c(-c4ccccc4)nnn3c3ccccc23)c1`, for which the “activation” value was inactive: 2.71%. Then `COc1ccc(CCNC(=O)Cn2c(=O)n(-c3cc(OC)c(OC)c(OC)c3)c(=O)c3ccccc32)cc1OC`, with inactive: -21.9%. Then `CN(Cc1ccccc1)C(=O)CSc1nc2ccsc2c(=O)n1-c1ccc(F)cc1`, with inactive: 9.45%; and `CCOc1ccc(CCNCc2c(C(=O)O)n(Cc3ccc(C)cc3)c3cc(OC)ccc23)cc1`, with inactive: -7.81%.

For `COc1cccc(NS(=O)(=O)c2ccc3[nH]cc(C(=O)NCCc4ccccc4)c(=O)c3c2)c1`, the “activation” value was inactive: -3.96%. For `CC(CSC(=O)c1ccccc1)C(=O)N1C[C@@H](Sc2ccccc2)C[C@H]1C(=O)O` (stereo partly drawn) the value was inactive: -19.3% [at 23.8 µM].

As for `O=S(=O)(c1ccccc1F)N1CCC(Oc2ccc(-n3cnnn3)cc2)CC1`, the “activation” value is inactive: -7.89%. Then `CCc1ccccc1NC(=O)Cn1c(=O)n(CC2CCC(C(=O)NCCc3ccccc3)CC2)c(=O)c2ccccc21` (stereo not drawn), with inactive: 5.52%; and `COc1ccc(NC(=O)CCc2nnc3n(C)c(=O)c4sccc4n23)cc1Cl`, with inactive: 3.45%. Take `CCn1cc(C(=O)NCCCN(CC(C)C)CC(C)C)c(=O)c2cc(S(=O)(=O)N(C)C3CCCCC3)ccc21`: the “activation” value was inactive: -8.25%. Then `COc1cccc(N2C(=O)N(Cc3ccc(C#N)cc3)c3ccccc3S2(=O)=O)c1`, with inactive: -4.38%; and `COc1ccc(-c2noc(-c3ccc(NCc4cccnc4)c([N+](=O)[O-])c3)n2)cc1`, with inactive: 1.46%; and `CCC(=O)N1CCc2cc(Br)cc(S(=O)(=O)CCC(=O)Nc3ccc(C)c(C)c3)c21`, with inactive: -14.1%. Then `CCc1ccc(NC(=O)C(=O)NCC(c2ccc3c(c2)OCO3)N2CCOCC2)cc1` (stereo not drawn), with inactive: -8.78%. For `Cc1ccc(S(=O)(=O)c2nc(-c3ccccc3Cl)oc2N2CCCCCC2)cc1`, the “activation” value is inactive: -33.4%. With `COc1ccc(C2=NS(=O)(=O)N(C)C(C(=O)NCc3ccccc3)=C2)cc1OC`, the “activation” value was inactive: -19%. For `Cc1ncc([N+](=O)[O-])n1CC(O)CCl` (stereo not drawn) the value was inactive: -3.66%. With `Cc1ccc(Cl)c(NC(=O)Nc2csc3c2CCCC3)c1`, the “activation” value was inactive: -12%.

`CCn1c(=O)n(-c2ccc(F)c(Cl)c2)c(=O)c2c3c(sc21)CN(C(C)=O)CC3`: the “activation” value was inactive: -16.8%. For `COc1cccc(C(=O)Nc2ccc(-c3nc4ccccc4s3)cc2Cl)c1` the value was inactive: -1.55%; for `CCOC(=O)c1nc(N2CCN(c3ccc(F)cc3)CC2)c2c(C)noc2n1`, inactive: -5.17%. In the case of `CCCC(=O)N(c1ccc2oc(C)c(C(C)=O)c2c1)S(=O)(=O)c1ccc(C)cc1`, the “activation” value is inactive: -29.6%. With `COc1ccc(NC(=O)CCCc2nnc3n(CCC(C)C)c(=O)c4sccc4n23)c(OC)c1`, the “activation” value was inactive: -20.9%. Then `COc1ccc(-c2csc3nc(-c4ccc(F)cc4)oc(=O)c23)cc1`, with inactive: 8.13%; and `COCCNC(=O)c1ccc(-n2c(-c3ccccc3)cc3c2CCCCC3)cc1`, with inactive: 1.69%.
